The conditions of data set [1]: in vivo; cited from earlier work.
For data set [2] the following is noted: cited from earlier work.
A short description of data set [3]: Stability of vitamin E nanobarriers in lenses, aqueous solubility of vitamin E. Type of data set: physicochemical.
Data set [4] can be described thus: In vitro triumvirate drug release from vitamin-E modified ACUVUE OASYS lenses in PBS. Type of data set: physicochemical.
Data set [5] is classed as physicochemical. As to the method:
FIG. 6 illustrates a graph regarding the delivery of bromfenac by loading the drug in Acuvuce Oasys with 20% vitamin E lenses in a 3 mL solution of bromfenac at 0.5, 1, 2 and 10 mg/mL.
Delivery of bromfenac was tested by loading the drug in Acuvuce Oasys with 20% vitamin E lenses in a 3 mL solution of bromfenac at 0.5, 1, 2 and 10 mg/mL (as shown in FIG. 6). […] The release duration can be increased to about 7-days by increasing vitamin E loading in lens to about 30% because the release duration increases as square of the vitamin E loading. The high partition coefficient means that a concentration of just 1 mg/mL in loading solution will be adequate to load about 350 μg of drug.

For data set [6] the following is noted: assumed to be equal to that for timolol; cited from earlier work.
Data set [7] can be described thus: Dexamethasone phosphate release from ACUVUE OASYS lenses loaded with 30% VE. Type of data set: physicochemical. Conditions: 30% VE lenses soaked in 20 mg/ml. An excerpt: The physician will have the option of replacing the lens with another lens after 7 days. […] An alternative is to replace levofloxacin with moxifloxacin which is a commonly used 4th generation fluoroquinolone. Additionally, bromfenac will be incorporated as a replacement for ketorolac. Thus, the triple drug combination will be Moxifloxacin, Dexamethasone, Bromfenac, or Moxifloxacin, Dexamethasone Phosphate, Bromfenac, or Moxifloxacin, Dexamethasone, Ketorolac or Moxifloxacin, Dexamethasone Phosphate, Ketorolac. Any of these drugs can be substituted with drugs in the same general class. Additionally, any one of two of these drugs could be loaded instead of all three. For example, just a steroid and NSAID could be loaded and the antibiotic could be administered as an intracameral injection. […] For example, moxifloxacin hydrochloride, ketorolac tromethamine, bromfenac sodium.

Like-named read-outs stand apart in the source and are kept apart here.

As for `COc1c(N2C[C@@H]3CCCN[C@@H]3C2)c(F)cc2c(=O)c(C(=O)O)cn(C3CC3)c12` [moxifloxacin], the Mean aqueous concentration in data set [1] is 1.745 µg/mL.
Turning to `Cc1ccc(=O)n(-c2ccccc2)c1` [pirfenidone], the “Healing of cornea after an alkaline burn” value in data set [2] (contact lenses loaded with drug) was “can lead to healing of cornea”. The “Aqueous humor levels, delivery via contacts compared to eye drops” value in data set [2] (dose 2.5-fold lower in contacts) is “much higher”.
Take `Cc1c(C)c2c(c(C)c1O)CCC(C)(CCCC(C)CCCC(C)CCCC(C)C)O2` (racemic) [vitamin E, DL-alpha tocopherol]: the “Solubility in aqueous solutions” value in data set [3] is listed as “negligible”.
On to `O=C(c1ccccc1)c1ccc2n1CCC2C(=O)O` (stereo not shown) [ketorolac], for which the Release duration in data set [4] (ACUVUE OASYS lenses with 30% vitamin E, release in PBS) was 200 h; in data set [4] (control lens without vitamin E) it was “a few hours”.
`Nc1c(CC(=O)O)cccc1C(=O)c1ccc(Br)cc1` [bromfenac]: the “Partition coefficient (ratio of drug concentration in lens and solution)” value in data set [5] is listed as 11.65±1.28. For the same molecule, in data set [5] (1 mg/mL in loading solution), the “Amount of drug loaded” value is reported as “about 350 μg”. For the same molecule, the Release duration entry in data set [5] (Acuvue Oasys with 20% vitamin E, 3 mL buffer) is “about 3 days”. The “Release duration on increasing vitamin E loading” value in data set [5] (vitamin E loading about 30%) is “about 7 days”.
Take `C[C@@H]1C[C@H]2[C@@H]3CCC4=CC(=O)C=C[C@]4(C)[C@@]3(F)[C@@H](O)C[C@]2(C)[C@@]1(O)C(=O)CO` [dexamethasone]: in data set [6], the Corneal permeability is 12 ×10⁻⁶ cm/s.
As to `C[C@@H]1C[C@H]2[C@@H]3CCC4=CC(=O)C=C[C@]4(C)[C@@]3(F)[C@@H](O)C[C@]2(C)[C@@]1(O)C(=O)COP(=O)(O)O` [DXP, dexamethasone sodium phosphate], in data set [7], the “Expected amount of drug released” value is recorded as “about 750 μg” and the Expected release time is recorded as 40 days.

The record behind these values is patent US20240184137A1, “CONTACT LENSES AND METHODS OF MAKING CONTACT LENSES” (University of Florida Research Foundation, Inc., priority 2021, published 2024).
